Among all 44,000 compounds or so, about 340 (0.77%) were called active. Another 5% or so got no clear call; they are omitted. Calls follow the shape of the dose curve; as a rule, active = well fitted inhibition curve with a large enough effect; inconclusive = small, poorly fitted or top-dose-only effect; inactive = flat fitted curve, though single readings scatter. Some of the results follow.
Assay: Acumen qHTS Assay for Inhibitors of the mTORC1 Signaling Pathway in MEF (Tsc2-/-, p53-/-) Cells: Sytravon;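 also: plate controls were DMSO for no effect and rapamycin for full effect; nearly all actives have a fitted effect of over 50% in size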
Details: phospho-rpS6 immunofluorescence/PI, 24 h; series mostly up to 38.3 µM; activity change, negative = inhibition: at the top concentration
Procedure, shortened: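 Cell-based qHTS: Tsc2-/- p53-/- MEF, 24 h cpd, 37 °C; fix/perm, anti-phospho-S6 Alexa-488 + PI; Acumen 488 nm scan; pS6/PI ratio, % positive cells; rapamycin 7.5 nM = inhibition ref; PI count = viability.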

Activity change, negative = inhibition, inactive:
COc1ccc(Cl)cc1NC(=O)CSc1nnc(C)n2c1cc1occc12 -2.9%
COC(=O)c1sccc1S(=O)(=O)N1CCN(c2ccccc2)CC1 -0.0811%
CCOc1ccc(CCNC(=O)CCc2c(C)nc3c4c(C)cc(C)nc4nn3c2C)cc1 -3.86%
COc1cccc(NC(=O)NCc2ccc3c(c2)CCN3C(=O)c2ccccc2)c1 -2.61%
Cc1cccc(C(=O)Nc2sc3c(c2C(=O)NCc2ccco2)CCCC3)c1 -14.3%
Cc1ccc2[nH]c(=O)c3cc(C(=O)N4CCN(c5ccccc5)CC4)sc3c2c1 3.14%
CCN(CC)S(=O)(=O)c1ccc2c(c1)N(CC(=O)NCCCN1CCN(c3ccccc3F)CC1)C(=O)CO2 2.61%
CCc1ccc(NC(=O)c2cc(C(C)=O)n3ccccc23)cc1 -1.49%
CC(C)c1ccc(C2N3CC4(C)CN2CC(c2ccccc2)(C3)C4=O)cc1 (stereo unspecified) -9.08%
CCCc1nn2c(=O)cc(COC(=O)c3cccc(NC(=O)COc4ccc(F)cc4)c3)nc2s1 0%
CCc1nn(-c2ccccc2)c2nc(-c3ccccc3OC)c3cc(OC)c(OC)cc3c12 7.73%
CCOC(=O)c1scc(-c2ccccc2)c1S(=O)(=O)Nc1ccccc1F -14.4%
Clc1cccc(N2CCN(c3ncnc4c3nc3n4CCCCC3)CC2)c1 -21.1%
O=C(O)c1cc(NC2(c3ccccc3)C(=O)c3ccccc3C2=O)ccc1Cl 3.33%
Cc1cc(C)c(Cn2c3ccccc3c3cnn(CC(=O)NC4CCC(C)CC4)c(=O)c32)c(C)c1 (stereo unspecified) -2.28%
Cc1nc(-c2ccc(Cl)cc2)sc1CCNC(=O)C(=O)Nc1ccc(F)cc1F -1.57%
O=C(Cn1c(=O)oc2cc(S(=O)(=O)N3CCCCC3)ccc21)Nc1cccc(Cl)c1 -0.0398%
Cc1ccccc1NC(=O)c1ccc(F)c(S(=O)(=O)N(C)Cc2ccccc2)c1 6.23%
Cc1oc2c(c(C)cc3oc(=O)c(CC(=O)NCCc4ccccc4F)c(C)c32)c1C 1.89%
CCOC(=O)C1CCN(c2ncnc3c2c(-c2ccccc2)cn3-c2cccc(C)c2)CC1 10.1%
CCc1ccc(NC(=O)CN2CCN(Cc3ccccc3)S2(=O)=O)cc1 5.71%
Cc1ccc(Cn2c(C(=O)O)c(CNCc3ccccc3Cl)c3ccc(C)cc32)cc1 -3.37%
Cc1ccccc1-n1c(SCC(=O)Nc2ccc(Cl)cc2F)nnc1-c1cc2occc2n1C 2.86%
Cc1cccc(NC(=O)CCCn2c(C)c3cnn(-c4ccccc4)c(=O)c3c2C)c1C 1.02%
CCOc1ccccc1CNS(=O)(=O)c1ccc2c(c1)CCCN2C(C)=O -25.4%
O=C(Cn1ccn(-c2ccc(F)c(F)c2)c(=O)c1=O)Nc1ccccc1F -1.26%
CCc1ccc(CNC(=O)c2sc3ncccc3c2-n2c(C)ccc2C)cc1 -19%
Cc1ccc(-c2nc3cc(C(C)C)ccc3o2)cc1NC(=O)c1cc2ccccc2o1 -1.17%
Cc1ccc(CN2CCc3nc(N4CCN(c5ncccn5)CC4)ncc3C2)cc1 4.14%
Cc1ccc(C)n1-c1nnc(N2CCCC(C(=O)NCc3ccc(Cl)cc3)C2)s1 (stereo unspecified) -9.9%
Cc1ccc(OCC(=O)Nc2ccc(S(=O)(=O)Nc3cc(C)nc(C)n3)cc2)c(Br)c1 14.5%
O=C(CCSc1nc(-c2ccco2)cc(C(F)(F)F)n1)Nc1cccc(O)c1 -18%
O=C(Nc1ccc2oc(-c3cccnc3)nc2c1)c1cccc(Br)c1 -0.207%
COc1cccc(NC(=O)CSc2nc3c(oc4ccccc43)c(=O)n2Cc2ccco2)c1 -2.86%
CC(C)CCNC(=O)CCCN1C(=O)c2ccccc2Sc2ncccc21 -1.49%
COc1cc(-c2noc(CN3CCN(c4ccccc4)CC3)n2)cc(OC)c1OC -10.1%
Cc1cccc(NC(=O)C(=O)NCC(c2ccc3c(c2)OCO3)N2CCOCC2)c1C (stereo unspecified) -7.17%
CCOC(=O)c1ccccc1NC(=O)N1CCc2c(sc(C)c2CC)C1c1ccccc1 (stereo unspecified) 22.4%
COc1ccccc1-c1nc2c(c(SCc3cccc(Cl)c3)n1)Cc1c(CO)cnc(C)c1O2 0.236%
COc1cc(OC)cc(C(=O)Oc2c(Sc3ccccc3)c(C)nn2C(C)(C)C)c1 1.47%
Cc1cn2c(=O)cc(COC(=O)c3cccc(NC(=O)COc4ccccc4Cl)c3)nc2s1 3.6%
CCc1ccc(C2c3c(-c4ccccc4O)n[nH]c3C(=O)N2Cc2ccncc2)cc1 (stereo unspecified) -27.3%
CCOc1ccc(-n2c(Cc3ccccc3)nnc2SCc2nc(-c3ccccc3OC)no2)cc1 -4.26%
CN1CCN(C(CNC(=O)c2cccc(F)c2)c2ccc3c(c2)OCO3)CC1 (stereo unspecified) 0.315%
Cc1cc(C)c(NC(=O)C2CCN(c3nc4ccccc4[nH]3)CC2)c(C)c1 4.46%
O=C(Nc1ccc2oc(-c3ccccc3F)nc2c1)c1ccccc1Cl -5.64%
Cc1cccc(CSc2ncc(CO)n2Cc2ccc(F)cc2)c1 -27.4%
Cc1ccc2c(c1)-c1nc(-c3ccc(Cl)cc3)cc(-c3coc4ccccc4c3=O)c1CO2 -8.55%
COc1ccc(NC(=O)CSc2ncc3c(n2)-c2cc(Cl)ccc2N(Cc2ccccc2F)S3(=O)=O)cc1 -16%
CCCSc1ncc(Cl)c(C(=O)Nc2ccc(S(=O)(=O)Nc3ncccn3)cc2)n1 2.94%
Cc1cc(C)c2c(=O)cc(C(=O)Nc3sc4c(c3C(=O)NCc3ccccc3)CCCC4)oc2c1 -2.78%
Fc1ccc(-n2ncc3c(NCCCN4CCOCC4)ncnc32)cc1 11.1%
COc1cc(-c2nnc(SCCOc3ccc(Cl)cc3C)o2)cc(OC)c1OC 2.32%
CCOC(=O)c1c(NC(=O)CSc2cn(CCNC(=O)c3ccccc3F)c3ccccc23)sc2c1CCC2 -11.3%
COC(=O)c1cc(S(=O)(=O)NCC2CCN(Cc3ccc(F)cc3)CC2)cn1C -1.79%
O=C(Nc1ccc2nc(SCC(=O)N3CCCc4ccccc43)sc2c1)c1cccc(F)c1 -5.29%
COc1cccc(CNC(=O)c2ccc(CSc3nc4ccncc4n3Cc3cccc(C)c3)cc2)c1 4.12%
Cc1ccc2c(c1)N(CCC(=O)NCc1ccc(F)cc1)C(=O)CO2 -3.51%
CCOCCc1nn2c(=O)cc(COC(=O)CNC(=O)c3ccc(C(C)(C)C)cc3)nc2s1 0.435%
Cc1ccc(Cl)cc1N1CCN(S(=O)(=O)c2ccc3[nH]c4c(c3c2)CCCCC4)CC1 2.81%
COc1cc(NC(=O)CCc2c(C)nn(-c3ccc4nncn4n3)c2C)cc(OC)c1OC -2.28%
